Measured values from the supplement of paper PMC8728848.
The list shows a part of the results.

Tests used:
Assay in all cases: glycan array binding signal (z-score within array); higher = stronger binding
Conditions in all cases: glycan notation: IUPAC condensed, linker removed
[1] = target: Gal(b1-4)GlcNAc(b1-3)Gal(b1-4)GlcNAc(b1-3)Gal(b1-4)GlcNAc(b1-3)Gal(b1-4)GlcNAc(b1-2)Man(a1-3)[Gal(b1-4)GlcNAc(b1-3)Gal(b1-4)GlcNAc(b1-3)Gal(b1-4)GlcNAc(b1-3)Gal(b1-4)GlcNAc(b1-2)Man(a1-6)]Man(b1-4)GlcNAc(b1-4)GlcNAc
In short: (§1)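 Arrays were curated from the Consortium for Functional Glycomics database, 3228 in total, and kept only where the protein sequence was available. Binding is expressed as a within-array Z-score. This score was averaged across arrays of the same protein sequence at different concentrations or buffers and across linkers, and negative values can be read as non-binding.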

[2] = target: Gal(b1-4)GlcNAc(b1-3)Gal(b1-4)GlcNAc(b1-3)Gal(b1-4)GlcNAc(b1-3)Gal(b1-4)GlcNAc(b1-2)Man(a1-3)[Gal(b1-4)GlcNAc(b1-3)Gal(b1-4)GlcNAc(b1-3)Gal(b1-4)GlcNAc(b1-3)Gal(b1-4)GlcNAc(b1-2)Man(a1-6)]Man(b1-4)GlcNAc(b1-4)[Fuc(a1-6)]GlcNAc
In short: as §1

[3] = target: Gal(b1-4)GlcNAc(b1-3)Gal(b1-4)GlcNAc(b1-3)Gal(b1-4)GlcNAc(b1-3)Gal(b1-4)GlcNAc(b1-2)[Gal(b1-4)GlcNAc(b1-3)Gal(b1-4)GlcNAc(b1-3)Gal(b1-4)GlcNAc(b1-3)Gal(b1-4)GlcNAc(b1-6)]Man(a1-6)[Gal(b1-4)GlcNAc(b1-3)Gal(b1-4)GlcNAc(b1-3)Gal(b1-4)GlcNAc(b1-3)Gal(b1-4)GlcNAc(b1-2)Man(a1-3)]Man(b1-4)GlcNAc(b1-4)[Fuc(a1-6)]GlcNAc
In short: as §1

[4] = target: Gal(b1-4)GlcNAc(b1-3)Gal(b1-4)GlcNAc(b1-3)Gal(b1-4)GlcNAc(b1-3)Gal(b1-4)GlcNAc(b1-3)Gal(b1-4)GlcNAc(b1-2)Man(a1-3)[Gal(b1-4)GlcNAc(b1-3)Gal(b1-4)GlcNAc(b1-3)Gal(b1-4)GlcNAc(b1-3)Gal(b1-4)GlcNAc(b1-3)Gal(b1-4)GlcNAc(b1-2)Man(a1-6)]Man(b1-4)GlcNAc(b1-4)GlcNAc
In short: as §1

[5] = target: Gal(b1-4)GlcNAc(b1-3)Gal(b1-4)GlcNAc(b1-3)Gal(b1-4)GlcNAc(b1-3)Gal(b1-4)GlcNAc(b1-3)Gal(b1-4)GlcNAc(b1-2)Man(a1-3)[Gal(b1-4)GlcNAc(b1-3)Gal(b1-4)GlcNAc(b1-3)Gal(b1-4)GlcNAc(b1-3)Gal(b1-4)GlcNAc(b1-3)Gal(b1-4)GlcNAc(b1-2)Man(a1-6)]Man(b1-4)GlcNAc(b1-4)[Fuc(a1-6)]GlcNAc
In short: as §1

[6] = target: Gal(b1-4)GlcNAc(b1-3)Gal(b1-4)GlcNAc(b1-3)Gal(b1-4)GlcNAc(b1-3)Gal(b1-4)GlcNAc(b1-3)Gal(b1-4)GlcNAc(b1-2)[Gal(b1-4)GlcNAc(b1-3)Gal(b1-4)GlcNAc(b1-3)Gal(b1-4)GlcNAc(b1-3)Gal(b1-4)GlcNAc(b1-3)Gal(b1-4)GlcNAc(b1-6)]Man(a1-6)[Gal(b1-4)GlcNAc(b1-3)Gal(b1-4)GlcNAc(b1-3)Gal(b1-4)GlcNAc(b1-3)Gal(b1-4)GlcNAc(b1-3)Gal(b1-4)GlcNAc(b1-2)Man(a1-3)]Man(b1-4)GlcNAc(b1-4)[Fuc(a1-6)]GlcNAc
In short: as §1

[7] = target: Gal(b1-4)GlcNAc(b1-3)Gal(b1-4)GlcNAc(b1-3)Gal(b1-4)GlcNAc(b1-3)Gal(b1-4)GlcNAc(b1-3)Gal(b1-4)GlcNAc(b1-3)Gal(b1-4)GlcNAc(b1-2)Man(a1-3)[Gal(b1-4)GlcNAc(b1-3)Gal(b1-4)GlcNAc(b1-3)Gal(b1-4)GlcNAc(b1-3)Gal(b1-4)GlcNAc(b1-3)Gal(b1-4)GlcNAc(b1-3)Gal(b1-4)GlcNAc(b1-2)Man(a1-6)]Man(b1-4)GlcNAc(b1-4)GlcNAc
In short: as §1

[8] = target: Gal(b1-4)GlcNAc(b1-3)Gal(b1-4)GlcNAc(b1-3)GalNAc
In short: as §1

[9] = target: Gal(b1-4)GlcNAc(b1-3)Gal(b1-4)GlcNAc(b1-3)[Gal(b1-4)GlcNAc(b1-3)Gal(b1-4)GlcNAc(b1-6)]GalNAc
In short: as §1

[10] = target: Gal(b1-4)GlcNAc(b1-3)Gal(b1-4)GlcNAc(b1-6)[Gal(b1-3)]GalNAc
In short: as §1

[11] = target: Gal(b1-4)GlcNAc(b1-3)Gal(b1-4)[Fuc(a1-3)]GlcNAc(b1-3)Gal(b1-4)[Fuc(a1-3)]GlcNAc
In short: as §1

[12] = target: Gal(b1-4)GlcNAc(b1-3)GalNAc
In short: as §1

[13] = target: Gal(b1-4)GlcNAc(b1-3)[Fuc(a1-3)GlcNAc(b1-6)]Gal(b1-4)Glc
In short: as §1

[14] = target: Gal(b1-4)GlcNAc(b1-3)[Gal(b1-4)GlcNAc(b1-6)]Gal(b1-4)GlcNAc
In short: as §1

[15] = target: Gal(b1-4)GlcNAc(b1-3)[GlcNAc(b1-6)]Gal(b1-4)GlcNAc
In short: as §1

[16] = target: Gal(b1-4)GlcNAc(b1-6)Gal(b1-4)GlcNAc
In short: as §1

[17] = target: Gal(b1-4)GlcNAc(b1-6)GalNAc
In short: as §1

[18] = target: Gal(b1-4)GlcNAc(b1-6)[Gal(b1-3)]GalNAc
In short: as §1

[19] = target: Gal(b1-4)GlcNAc(b1-6)[Gal(b1-4)GlcNAc(b1-3)]GalNAc
In short: as §1

[20] = target: Gal(b1-4)GlcNAc6P
In short: as §1

[21] = target: Gal(b1-6)Gal
In short: as §1

[22] = target: Gal3S(b1-3)GalNAc
In short: as §1

[23] = target: Gal3S(b1-3)GlcNAc
In short: as §1

B1: Dectin2 (Homo sapiens), Q6EIG7 (protein)
chain: MMQEQQPQSTEKRGWLSLRLWSVAGISIALLSACFIVSCVVTYHFTYGETGKRLSELHSYHSSLTCFSEGTKVPAWGCCPASWKSFGSSCYFISSEEKVWSKSEQNCVEMGAHLVVFNTEAEQNFIVQQLNESFSYFLGLSDPQGNNNWQWIDKTPYEKNVRFWHLGEPNHSAEQCASIVFWKPTGWGWNDVICETRRNSICEMNKIYL
[1]
  glycan array binding signal (z-score): -0.086
[2]
  glycan array binding signal (z-score): -0.09
[3]
  glycan array binding signal (z-score): -0.051
[4]
  glycan array binding signal (z-score): -0.062
[5]
  glycan array binding signal (z-score): -0.077
[6]
  glycan array binding signal (z-score): -0.055
[7]
  glycan array binding signal (z-score): 0.04
[8]
  glycan array binding signal (z-score): -0.013
[9]
  glycan array binding signal (z-score): 0.179
[10]
  glycan array binding signal (z-score): 0.038
[11]
  glycan array binding signal (z-score): -0.148
[12]
  glycan array binding signal (z-score): -0.186
[13]
  glycan array binding signal (z-score): -0.161
[14]
  glycan array binding signal (z-score): -0.183
[15]
  glycan array binding signal (z-score): 0.376
[16]
  glycan array binding signal (z-score): -0.198
[17]
  glycan array binding signal (z-score): -0.178
[18]
  glycan array binding signal (z-score): 0.199
[19]
  glycan array binding signal (z-score): -0.169
[20]
  glycan array binding signal (z-score): -0.184
[21]
  glycan array binding signal (z-score): -0.158
[22]
  glycan array binding signal (z-score): -0.138
[23]
  glycan array binding signal (z-score): -0.151
